Assay results reported in the supplement of paper PMC11417369.
Some of the results follow.

system: PfSIP2 AP2 domain 1 (GST-tagged); assay: gcPBM binding intensity (ln(normalized median fluorescence intensity)); higher = stronger DNA binding
In short: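 The highest Masliner-normalised natural-log median intensity across replicate spots of either probe orientation is reported as binding intensity. GST-tagged P. falciparum DNA-binding domains expressed in E. coli were applied for 1 h to an Agilent 4 × 180k array of primer-extended double-stranded 36-bp intergenic genomic probes plus negative controls, and bound protein was detected with Alexa488 anti-GST antibody and scanned at 488 nm.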

Question: “AAAAAAAAAAAAAAAAGTACATAATATAAAATCTAA [XGTACX_site6019]” was tested. Which “gcPBM binding intensity (ln)” value did it give?
Answer: 7.54

Question: Which “gcPBM binding intensity (ln)” value does the source give for “TATAAATATATATGTACACACATATACATGTTGAAT [CACACA_site3118]” here?
Answer: 7.09

Question: For “TATAAACATAAATATACACACAAACATCTATGTATT [CACACA_site4804]”, which “gcPBM binding intensity (ln)” value is on record?
Answer: 6.81

Question: Which “gcPBM binding intensity (ln)” value does the source give for “AAAAAAAAATATCACACACACATAAATATAAACCAA [CACACA_site2279]” here?
Answer: 6.95

Question: Which “gcPBM binding intensity (ln)” value does the source give for “AAAAAAAAAAAAACTACACACATAAAATATATTGTG [CACACA_site805]” here?
Answer: 7.05

Question: With “TAAAACATCAAGGGGTGTACAAAAAAGATGAACAGG [XGTACX_site6929]” as the sequence, how does the “gcPBM binding intensity (ln)” value read?
Answer: 7.28

Question: For “AGAGCATAATAAAACACACACATACATACATATATA [CACACA_site935]”, which “gcPBM binding intensity (ln)” value is on record?
Answer: 6.91

Question: For “ATTGGGTTCATCAGCACACACAACATCATGTAATAA [CACACA_site5093]”, which “gcPBM binding intensity (ln)” value is on record?
Answer: 6.98

Question: Which “gcPBM binding intensity (ln)” value does the source give for “AGGCACTTATAATAATGTACATAAATAAAAAGAAAA [XGTACX_site6037]” here?
Answer: 7.02

Question: With “TTCTGCAGCAATGTTTTTTTTAAATATTTATATGGT [CACACA_negctrl_site1815]” as the sequence, how does the “gcPBM binding intensity (ln)” value read?
Answer: 7.16

Question: “AAAAAAATAACAAAGTGTACTTTTATATTTTACATA [XGTACX_site8954]” was tested. Which “gcPBM binding intensity (ln)” value did it give?
Answer: 6.78

Question: How did the “gcPBM binding intensity (ln)” value turn out when “GCTAGTTTTTTTTGGCGTACAGTACCGGTTTACTTT [XGTACX_site2606]” was run?
Answer: 7.69

Question: “TTCCTCTTAATATGTGCACACTAAATTATAACATAA [CACACA_site3260]” was tested. Which “gcPBM binding intensity (ln)” value did it give?
Answer: 10

Question: “CATACCATACATAAAACACACAAAATTTACATAATA [CACACA_site3100]” was tested. Which “gcPBM binding intensity (ln)” value did it give?
Answer: 7.02

Question: “TATAGTTTTATTATTTATGTGTTAAAATTATACAAG [TGCATGCA_negctrl_site246]” was tested. Which “gcPBM binding intensity (ln)” value did it give?
Answer: 7.15

Question: Which “gcPBM binding intensity (ln)” value does the source give for “AAAAAAAAAAAAAAATGTACATATTAAGTATAATTA [XGTACX_site4616]” here?
Answer: 7.23

Question: With “TTAGCTCAATTTTTGGGTACACACAAATGTATAATA [XGTACX_site5003]” as the sequence, how does the “gcPBM binding intensity (ln)” value read?
Answer: 6.97

Question: Which “gcPBM binding intensity (ln)” value does the source give for “GAAAAATGTAAATACATATATGTACACAAATATATA [GTGCAC_negctrl_site557]” here?
Answer: 7.12

Question: “AATATTTATAAATTTACACACACACGGGTGAACATA [CACACA_site6979]” was tested. Which “gcPBM binding intensity (ln)” value did it give?
Answer: 6.96

Question: Which “gcPBM binding intensity (ln)” value does the source give for “TTTAATTCCATAAGTAAACACACAAATGCCAAAATT [CACACA_site9049]” here?
Answer: 7.1

Question: “ATTCTAAATTAAAATACACACATATATACATAATAT [CACACA_site2792]” was tested. Which “gcPBM binding intensity (ln)” value did it give?
Answer: 7.22

Question: How did the “gcPBM binding intensity (ln)” value turn out when “AAAAAAAATATATATATTAAAGTTTTAATTTTTATA [CACACA_negctrl_site497]” was run?
Answer: 6.75

Question: “TTAGAATTTAGAGAAGTGCATATTAAGTTACGAATT [GTGCAC_site9861]” was tested. Which “gcPBM binding intensity (ln)” value did it give?
Answer: 8.14

Question: For “ATTATATATATATATAGTACTTTTTTTTTTTTTTTT [XGTACX_site8801]”, which “gcPBM binding intensity (ln)” value is on record?
Answer: 7.5

Question: For “ATAATAATTTTATGCACACAGAAAAATACAAGGTTA [CACACA_site3510]”, which “gcPBM binding intensity (ln)” value is on record?
Answer: 7.46

Question: With “TTATTGGTTATATAAAGTACATTTGAAATATAATTG [XGTACX_site6553]” as the sequence, how does the “gcPBM binding intensity (ln)” value read?
Answer: 7.08

Question: Which “gcPBM binding intensity (ln)” value does the source give for “TTGCCTGACTTGTTCACACATATTTATGATATACAT [CACACA_site5783]” here?
Answer: 6.89

Question: For “TTTTCTTGGTATATGATTTATCCTAAATAAGTAAAT [CACACA_negctrl_site294]”, which “gcPBM binding intensity (ln)” value is on record?
Answer: 6.84

Question: For “TGTATTATAATATTATGTACTTATAAATTTTATATT [XGTACX_site6432]”, which “gcPBM binding intensity (ln)” value is on record?
Answer: 7.1

Question: Which “gcPBM binding intensity (ln)” value does the source give for “AATTTAAAGTTTTTTTTTTTTTTTTTTTTTTTTTTG [CACACA_negctrl_site1082]” here?
Answer: 6.78

Question: Which “gcPBM binding intensity (ln)” value does the source give for “TGGGTGGTAAAAATGTGTACATAAAAAAATAATGTT [XGTACX_site2235]” here?
Answer: 7.48

Question: For “TCTCACATTCTTATGGGTACACATGAGAAATTATAA [XGTACX_site6799]”, which “gcPBM binding intensity (ln)” value is on record?
Answer: 7.01

Question: How did the “gcPBM binding intensity (ln)” value turn out when “ATATTATTATAAAGTGGTACAATAAATGGTATTATA [XGTACX_site391]” was run?
Answer: 7.15

Question: “AATATACACCCGTGTACACAAATATTTACAAAACGT [CACACA_site4786]” was tested. Which “gcPBM binding intensity (ln)” value did it give?
Answer: 7.34

Question: How did the “gcPBM binding intensity (ln)” value turn out when “GTTACACCAACAAACACACACACACCCACCCACAAA [CACACA_site2427]” was run?
Answer: 7.44

Question: How did the “gcPBM binding intensity (ln)” value turn out when “AAAAGGAATGAAAATTCACACAACTATAAATACATA [CACACA_site5337]” was run?
Answer: 6.62

Question: Which “gcPBM binding intensity (ln)” value does the source give for “GGTATTACCTGTTTGTTATGTAGATGTTGCTAGGAT [GTGCAC_negctrl_site736]” here?
Answer: 7.25

Question: For “TAATTCTTTATAATAACACACATTCATATACAATAA [CACACA_site2499]”, which “gcPBM binding intensity (ln)” value is on record?
Answer: 6.92

Question: Which “gcPBM binding intensity (ln)” value does the source give for “ATACCAATAATATACATACACACATAAAGGTTTATA [CACACA_site314]” here?
Answer: 7.25

Question: “AAGAAAAACTAAAGAGTTCTGTTCATATCTCTTTGG [TGCATGCA_negctrl_site549]” was tested. Which “gcPBM binding intensity (ln)” value did it give?
Answer: 6.39

Question: How did the “gcPBM binding intensity (ln)” value turn out when “TATATCAAATTCTAAACATGCACAAAAAACTTATAA [TGCATGCA_site510]” was run?
Answer: 8.61

Question: “AAGGAAAAACCATTCGCACACACACCGAATATATAA [CACACA_site8403]” was tested. Which “gcPBM binding intensity (ln)” value did it give?
Answer: 7.03

Question: How did the “gcPBM binding intensity (ln)” value turn out when “ACTTAAATAATACATACACACATGTACATACAGAAA [CACACA_site1595]” was run?
Answer: 7.66

Question: “TATTTATATAGACACACACACATATATTTATATTTT [CACACA_site7240]” was tested. Which “gcPBM binding intensity (ln)” value did it give?
Answer: 7.04

Question: How did the “gcPBM binding intensity (ln)” value turn out when “TTTACATTTAATAAAAGTACTTATTTCATATACATA [XGTACX_site659]” was run?
Answer: 6.92

Question: Which “gcPBM binding intensity (ln)” value does the source give for “AAAAAACAAAAACACACACACACATATATATATATA [CACACA_site3654]” here?
Answer: 9.19

Question: “ATCACTAACATGTGTTGTACATAAAATTTGTTTGTT [XGTACX_site2207]” was tested. Which “gcPBM binding intensity (ln)” value did it give?
Answer: 6.98

Question: “TTAACTTTTATATAGTGTACAAATAAATGCATACAG [XGTACX_site5958]” was tested. Which “gcPBM binding intensity (ln)” value did it give?
Answer: 7.43

Question: How did the “gcPBM binding intensity (ln)” value turn out when “TTATTATTTAACATGTGGACACAAAAATTTAAGGGT [XGTACX_site4638]” was run?
Answer: 7.45

Question: Which “gcPBM binding intensity (ln)” value does the source give for “TCTACTACTTAATGGAGTACTAGCTTCATAATATTA [XGTACX_site7030]” here?
Answer: 6.91

Question: How did the “gcPBM binding intensity (ln)” value turn out when “TGAACACAGACAAATACACACAAAAAAAATAAATAA [CACACA_site4298]” was run?
Answer: 7.01

Question: “TATTATGTATAAAGAAGTACTTTTTTTTTTTTTTTC [XGTACX_site201]” was tested. Which “gcPBM binding intensity (ln)” value did it give?
Answer: 6.76

Question: How did the “gcPBM binding intensity (ln)” value turn out when “GATTATTTAAAATATACATGCGCGCACATATGCATA [TGCATGCA_site630]” was run?
Answer: 8.39

Question: Which “gcPBM binding intensity (ln)” value does the source give for “TGCATTTTCCTATTTGCATGCAATTAAAATATAGAA [TGCATGCA_site862]” here?
Answer: 7.16

Question: ATGTTTTAATGAGGTTTGCACTATATTTTAATGAAC was tested. Which “gcPBM binding intensity (ln)” value did it give?
Answer: 8.64

Question: Which “gcPBM binding intensity (ln)” value does the source give for “AACATATATACAGTAACACACACAAAAAAATATGAA [CACACA_site9323]” here?
Answer: 7.15
